# Source: the supplement of paper PMC8728848
# The list shows a part of the results.
# B1: XCL (Xerocomus chrysenteron) (protein)
# chain: MSYSITLRVYQTNRDRGYFSIVEKTVWHFANGGTWSEANGAHTLTQGGSGTSGVLRFLSTKGERITVAVGVHNYKRWCDVVTGLKPDETALVINPQYYNNGGRDYVREKQLAEYSVTSAIGTKVEVVYTVAEGNNLEANVIFS
# Tests used:
# Assay in all cases: glycan array binding signal (z-score within array); higher = stronger binding
# Conditions in all cases: glycan notation: IUPAC condensed, linker removed
# [1] = molecular target: Neu5Ac(a2-6)Gal(b1-4)GlcNAc(b1-2)Man(a1-6)[Man(a1-3)]Man(b1-4)GlcNAc(b1-4)GlcNAc
# Summary of the method: (§1)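 Columns mapping to the same glycan were averaged after glycan names were converted to IUPAC-condensed notation. The data come from 3228 arrays in the Consortium for Functional Glycomics database, limited to those with an available protein sequence. Binding is reported as a within-array Z-score averaged across arrays of one protein sequence and across linkers.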
# [2] = molecular target: Neu5Ac(a2-6)Gal(b1-4)GlcNAc(b1-3)Gal(b1-3)GlcNAc
# Summary of the method: as §1
# [3] = molecular target: Neu5Ac(a2-6)Gal(b1-4)GlcNAc(b1-3)Gal(b1-4)GlcNAc
# Summary of the method: as §1
# [4] = molecular target: Neu5Ac(a2-6)Gal(b1-4)GlcNAc(b1-3)Gal(b1-4)GlcNAc(b1-3)Gal(b1-4)GlcNAc
# Summary of the method: as §1
# [5] = molecular target: Neu5Ac(a2-6)Gal(b1-4)GlcNAc(b1-3)Gal(b1-4)[Fuc(a1-3)]GlcNAc(b1-3)Gal(b1-4)[Fuc(a1-3)]GlcNAc
# Summary of the method: as §1
# [6] = molecular target: Neu5Ac(a2-6)Gal(b1-4)GlcNAc(b1-3)GalNAc
# Summary of the method: as §1
# [7] = molecular target: Neu5Ac(a2-6)Gal(b1-4)GlcNAc6S
# Summary of the method: as §1
# Neu5Ac(a2-6)GalNAc = molecular target: Neu5Ac(a2-6)GalNAc
# Summary of the method: as §1
# [8] = molecular target: Neu5Ac(a2-6)GalNAc(b1-4)GlcNAc
# Summary of the method: as §1
# [9] = molecular target: Neu5Ac(a2-6)GlcNAc(b1-4)GlcNAc
# Summary of the method: as §1
# [10] = molecular target: Neu5Ac(a2-6)GlcNAc(b1-4)GlcNAc(b1-4)GlcNAc
# Summary of the method: as §1
# Neu5Ac(a2-8)Neu5Ac = molecular target: Neu5Ac(a2-8)Neu5Ac
# Summary of the method: as §1
# [11] = molecular target: Neu5Ac(a2-8)Neu5Ac(a2-3)Gal(b1-3)GalNAc(b1-4)[Neu5Ac(a2-8)Neu5Ac(a2-3)]Gal(b1-4)Glc
# Summary of the method: as §1
# [12] = molecular target: Neu5Ac(a2-8)Neu5Ac(a2-3)Gal(b1-4)Glc
# Summary of the method: as §1
# [13] = molecular target: Neu5Ac(a2-8)Neu5Ac(a2-3)[Gal(b1-3)GalNAc(b1-4)]Gal(b1-4)Glc
# Summary of the method: as §1
# [14] = molecular target: Neu5Ac(a2-8)Neu5Ac(a2-3)[GalNAc(b1-4)]Gal(b1-4)Glc
# Summary of the method: as §1
# [15] = molecular target: Neu5Ac(a2-8)Neu5Ac(a2-8)Neu5Ac
# Summary of the method: as §1
# [16] = molecular target: Neu5Ac(a2-8)Neu5Ac(a2-8)Neu5Ac(a2-3)Gal(b1-4)Glc
# Summary of the method: as §1
# [17] = molecular target: Neu5Ac(a2-8)Neu5Ac(a2-8)Neu5Ac(a2-3)[GalNAc(b1-4)]Gal(b1-4)Glc
# Summary of the method: as §1
# [18] = molecular target: Neu5Ac(a2-8)Neu5Ac(a2-8)Neu5Ac(a2-8)Neu5Ac(a2-3)[GalNAc(b1-4)]Gal(b1-4)Glc
# Summary of the method: as §1
# [19] = molecular target: Neu5Ac(b2-6)Gal(b1-4)GlcNAc
# Summary of the method: as §1
# Neu5Ac(b2-6)GalNAc = molecular target: Neu5Ac(b2-6)GalNAc
# Summary of the method: as §1
# [20] = molecular target: Neu5Ac9Ac(a2-3)Gal(b1-3)GlcNAc
# Summary of the method: as §1
# [21] = molecular target: Neu5Ac9Ac(a2-3)Gal(b1-4)GlcNAc
# Summary of the method: as §1
# [22] = molecular target: Neu5Ac9Ac(a2-6)Gal(b1-4)GlcNAc
# Summary of the method: as §1
# [23] = molecular target: Neu5Gc(a2-3)Gal(b1-3)GlcNAc
# Summary of the method: as §1
# [24] = molecular target: Neu5Gc(a2-3)Gal(b1-3)[Fuc(a1-4)]GlcNAc
# Summary of the method: as §1
# Neu5Gc(a2-3)Gal(b1-4)Glc = molecular target: Neu5Gc(a2-3)Gal(b1-4)Glc
# Summary of the method: as §1
# [25] = molecular target: Neu5Gc(a2-3)Gal(b1-4)GlcNAc
# Summary of the method: as §1
# [26] = molecular target: Neu5Gc(a2-3)Gal(b1-4)[Fuc(a1-3)]GlcNAc
# Summary of the method: as §1
# [27] = molecular target: Neu5Gc(a2-6)Gal(b1-4)GlcNAc
# Summary of the method: as §1
# Neu5Gc(a2-6)GalNAc = molecular target: Neu5Gc(a2-6)GalNAc
# Summary of the method: as §1
# [28] = molecular target: Neu5Gc(b2-6)Gal(b1-4)GlcNAc
# Summary of the method: as §1
binder,measurement,setting,value
B1,glycan array binding signal (z-score),[1],-0.278
same,glycan array binding signal (z-score),[2],-0.311
same,glycan array binding signal (z-score),[3],-0.243
same,glycan array binding signal (z-score),[4],-0.311
same,glycan array binding signal (z-score),[5],-0.283
same,glycan array binding signal (z-score),[6],0.128
same,glycan array binding signal (z-score),[7],-0.326
same,glycan array binding signal (z-score),Neu5Ac(a2-6)GalNAc,-0.088
same,glycan array binding signal (z-score),[8],-0.325
same,glycan array binding signal (z-score),[9],-0.322
same,glycan array binding signal (z-score),[10],-0.328
same,glycan array binding signal (z-score),Neu5Ac(a2-8)Neu5Ac,-0.303
same,glycan array binding signal (z-score),[11],-0.322
same,glycan array binding signal (z-score),[12],-0.311
same,glycan array binding signal (z-score),[13],-0.319
same,glycan array binding signal (z-score),[14],-0.316
same,glycan array binding signal (z-score),[15],-0.317
same,glycan array binding signal (z-score),[16],-0.328
same,glycan array binding signal (z-score),[17],-0.314
same,glycan array binding signal (z-score),[18],-0.309
same,glycan array binding signal (z-score),[19],-0.325
same,glycan array binding signal (z-score),Neu5Ac(b2-6)GalNAc,-0.318
same,glycan array binding signal (z-score),[20],-0.323
same,glycan array binding signal (z-score),[21],-0.321
same,glycan array binding signal (z-score),[22],-0.279
same,glycan array binding signal (z-score),[23],-0.309
same,glycan array binding signal (z-score),[24],-0.323
same,glycan array binding signal (z-score),Neu5Gc(a2-3)Gal(b1-4)Glc,-0.307
same,glycan array binding signal (z-score),[25],-0.32
same,glycan array binding signal (z-score),[26],-0.294
same,glycan array binding signal (z-score),[27],-0.314
same,glycan array binding signal (z-score),Neu5Gc(a2-6)GalNAc,0.059
same,glycan array binding signal (z-score),[28],-0.32
